Consider four compounds from the supplement of paper PMC4604168 (melanoma cell lines).

This is one part of the list. Most values come without repeats; read them as rough.
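Note: cells treated in 1,536-well plates, then fixed and DAPI-stained, with nuclei counted from automated high-throughput microscope images.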

The test system of this experiment is LB2518-MEL. The experiment can be described thus: cell count relative to DMSO control; melanoma cells; higher = more viable cells. The conditions noted are these: library dose: standard library concentration; 72 h.
In turn, `CC(=O)O[C@@]12CO[C@@H]1C[C@H](O)[C@@]1(C)C(=O)[C@H](O)C3=C(C)[C@@H](OC(=O)[C@H](O)[C@@H](NC(=O)OC(C)(C)C)c4ccccc4)C[C@@](O)([C@@H](OC(=O)c4ccccc4)[C@H]21)C3(C)C` [Docetaxel] + c1cc(-c2cnn3cc(-c4ccc(OCCN5CCCCC5)cc4)cnc23)ccn1 [Dorsomorphin] (first compound 0.0005 µM, partner dose 2 µM) showed a cell count of 44.7%.
Regarding `Nc1ncn([C@H]2C[C@H](O)[C@@H](CO)O2)c(=O)n1` [decitabine] + COC(=O)c1sccc1S(=O)(=O)Nc1ccc(Nc2ccccc2)cc1OC [GSK0660] (first compound 0.5 µM, partner dose 5 µM), the cell count turned out to be 65.4%.
In turn, `CO[C@H]1C[C@@H]2CC[C@@H](C)[C@@](O)(O2)C(=O)C(=O)N2CCCC[C@H]2C(=O)O[C@H]([C@H](C)C[C@@H]2CC[C@@H](OCCO)[C@H](OC)C2)CC(=O)[C@H](C)/C=C(\C)[C@@H](O)[C@@H](OC)C(=O)[C@H](C)C[C@H](C)/C=C/C=C/C=C/1C` [everolimus] + Clc1ccc(Nc2nnc(Cc3ccncc3)c3ccccc23)cc1 [vatalanib] (first compound 0.1 µM, partner dose 10 µM) had a cell count of 66.5%.
In the case of `Nc1ccn([C@@H]2O[C@H](CO)[C@@H](O)C2(F)F)c(=O)n1` [gemcitabine] + OCc1c[nH]c2ccccc12 [Indole-3-carbinol] (first compound 0.002 µM, partner dose 4 µM), the cell count was 54.8%.
